# Results taken from PubChem BioAssay AID485341 (National Center for Advancing Translational Sciences (NCATS), 2010).
# Hit rate of the full screen: of about 330,000 compounds, about 1,700 (0.52%) were called active. The shares of active, inactive and inconclusive entries below differ from those in the screen. Calls follow the shape of the dose curve; as a rule, active = well fitted inhibition curve with a large enough effect; inconclusive = small, poorly fitted or top-dose-only effect; inactive = no such curve, though single readings can be large or run the other way. Potencies beside an inconclusive call are fits to weak or partial responses and may not hold up.
# Biological target: Beta-lactamase (Escherichia coli (strain K12)) (UniProt P00811)
# Test: qHTS Inhibitors of AmpC Beta-Lactamase (assay without detergent); also: nearly all actives have a fitted effect of over 20% in size;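 as to activity change, negative = inhibition: plate controls were no compound for no effect and no enzyme for full effect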
# Details: AmpC nitrocefin hydrolysis, absorbance 480 nm, 0.0001% Triton; activity change, negative = inhibition: at 57.1 µM (top of the series) unless noted
# Method in brief: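 AmpC (5.3 nM in the dispensed reagent) in 20 mM phosphate pH 7.0 with 0.01% (detergent screen) or 0.0001% Triton X-100 was preincubated with compounds for 15 min at room temperature. Nitrocefin was then added from an 800 uM solution, and hydrolysis was followed at 480 nm.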
# Potency is read from the fitted curve at half-maximal effect; tags tell the direction and shape of the fitted curve.
# Chain of UniProt P00811 (P00811 whole entry, looked up): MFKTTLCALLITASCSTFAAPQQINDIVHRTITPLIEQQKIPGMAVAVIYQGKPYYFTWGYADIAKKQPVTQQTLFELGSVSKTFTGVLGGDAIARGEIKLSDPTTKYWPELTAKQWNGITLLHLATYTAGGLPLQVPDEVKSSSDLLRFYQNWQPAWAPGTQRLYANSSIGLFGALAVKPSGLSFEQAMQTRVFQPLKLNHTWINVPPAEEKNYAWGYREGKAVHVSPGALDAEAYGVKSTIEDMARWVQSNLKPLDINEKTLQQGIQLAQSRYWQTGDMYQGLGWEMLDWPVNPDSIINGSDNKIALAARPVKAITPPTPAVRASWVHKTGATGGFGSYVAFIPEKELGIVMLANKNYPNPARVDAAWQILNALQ
SMILES,Potency,"activity change, negative = inhibition"
CC(C)(C)NC(=O)CN(C(=O)CNC(=O)c1cccs1)c1ccc2c(c1)OCCO2,"inconclusive: 6.31 µM [inhibitor, single point]",–
COc1ccc2cc(CCNC(=O)C(C)C)c(=O)[nH]c2c1,"inconclusive: 6.31 µM [inhibitor, full curve, poor fit]",–
CCCC(=O)N(c1ccc2oc(=O)sc2c1)S(=O)(=O)c1ccccc1,active: 10 µM,–
Cc1cc(/C=C2\SC(=S)N(C)C2=O)c(C)n1-c1cccc(O)c1,–,inactive: -25.2%
COc1ccc(Cl)cc1C(=O)N1CCN=C1SC,"inconclusive: 0.631 µM [inhibitor, full curve, poor fit]",–
Cc1nc(N2CCN(c3ccccn3)CC2)c2c(C)c(C(=O)Nc3c(F)cc(F)cc3Br)sc2n1,–,inactive: 30.5%
O=C(c1ccc(F)cc1)N1CCN(Cc2ccccc2Br)CC1,"inconclusive: 2.24 µM [inhibitor, partial curve, poor fit]",–
CCOC(=O)n1c(=O)n(Cc2ccccc2)c2ccccc21,"inconclusive: 0.631 µM [inhibitor, partial curve, poor fit]",–
CCOC(=O)c1c(NC(=O)CSc2nnnn2-c2ccccc2OCC)sc2c1CC(C)(C)NC2(C)C,"inconclusive: 39.8 µM [inhibitor, single point]",–
CN1C(=O)C(=Cc2ccc(-c3cccc(Cl)c3)o2)C(=O)N(C)C1=O,"inconclusive: 39.8 µM [inhibitor, single point]",–
Cc1ccc(N=C(NO)c2nonc2N)c(C)c1,–,inactive: -8.3%
CCCCCCc1cc2cc(C(N)=O)c(=N)oc2cc1O,"inconclusive: 31.6 µM [inhibitor, single point]",–
N#CC1(NC(=O)Cn2ncc(Cl)c(Cl)c2=O)CCCCC1,active: 25.1 µM,–
O=C(OCc1nnc(-c2ccccc2)o1)c1cccnc1Cl,–,inactive: -13.5%
CSc1cccc(NC(=O)c2cc(S(=O)(=O)N3CCc4ccccc43)cn2C)c1,active: 10 µM,–
COCCN(C(=O)COC(=O)Cc1ccccc1)c1c(N)n(Cc2ccccc2)c(=O)[nH]c1=O,"inconclusive: 39.8 µM [inhibitor, single point]",–
CC(=O)c1ccc(S(=O)(=O)Nc2ccc(Cl)c(S(=O)(=O)N3CCCC3)c2)cc1,"inconclusive: 35.5 µM [inhibitor, single point]",–
O=C(CSc1nnc(Cc2ccccc2)o1)NC1CCCCC1,"inconclusive: 0.141 µM [inhibitor, full curve, poor fit]",–
CCc1ccc(NS(=O)(=O)c2cccc3nonc23)cc1,"inconclusive: 10 µM [inhibitor, partial curve]",–
